# According to PubChem BioAssay AID504332 (National Center for Advancing Translational Sciences (NCATS), 2011):
# Hit rate of the full screen: of about 350,000 compounds, about 31,000 (8.9%) were called active. The inconclusive results got no clear call from the source; some entries with a clear call stand among them for comparison. The call rests on the fitted dose curve; in most records, active means well fitted inhibition curve with a large enough effect; inconclusive means small, poorly fitted or top-dose-only effect; inactive means no such curve, though single readings can be large or run the other way. Potencies of inconclusive entries are doubtful fits and often do not repeat.
# Target: Histone-lysine N-methyltransferase EHMT2 (Homo sapiens) (UniProt Q96KQ7)
# Assay: qHTS Assay for Inhibitors of Histone Lysine Methyltransferase G9a; further: nearly all actives have a fitted effect of over 75% in size
# Conditions: G9a H3K9 monomethylation, AlphaScreen, 2 h; activity, negative = inhibition: at 59 µM (top of the series) unless noted
# Method in brief: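 AlphaScreen read-out: biotin-H3K9 peptide (500 nM) methylation by 20 nM enzyme with 20 uM SAM, 2 h at room temperature after 15 min compound preincubation; anti-monomethyl H3K9 antibody plus donor/acceptor beads, 10 min dark.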
# On the % scale 0 is the no-effect control and ±100 the full control effect; potency means the concentration at half of the fitted maximal effect; tags describe the fitted curve by direction and shape.
# Sequence of UniProt Q96KQ7 (Q96KQ7 whole entry, looked up): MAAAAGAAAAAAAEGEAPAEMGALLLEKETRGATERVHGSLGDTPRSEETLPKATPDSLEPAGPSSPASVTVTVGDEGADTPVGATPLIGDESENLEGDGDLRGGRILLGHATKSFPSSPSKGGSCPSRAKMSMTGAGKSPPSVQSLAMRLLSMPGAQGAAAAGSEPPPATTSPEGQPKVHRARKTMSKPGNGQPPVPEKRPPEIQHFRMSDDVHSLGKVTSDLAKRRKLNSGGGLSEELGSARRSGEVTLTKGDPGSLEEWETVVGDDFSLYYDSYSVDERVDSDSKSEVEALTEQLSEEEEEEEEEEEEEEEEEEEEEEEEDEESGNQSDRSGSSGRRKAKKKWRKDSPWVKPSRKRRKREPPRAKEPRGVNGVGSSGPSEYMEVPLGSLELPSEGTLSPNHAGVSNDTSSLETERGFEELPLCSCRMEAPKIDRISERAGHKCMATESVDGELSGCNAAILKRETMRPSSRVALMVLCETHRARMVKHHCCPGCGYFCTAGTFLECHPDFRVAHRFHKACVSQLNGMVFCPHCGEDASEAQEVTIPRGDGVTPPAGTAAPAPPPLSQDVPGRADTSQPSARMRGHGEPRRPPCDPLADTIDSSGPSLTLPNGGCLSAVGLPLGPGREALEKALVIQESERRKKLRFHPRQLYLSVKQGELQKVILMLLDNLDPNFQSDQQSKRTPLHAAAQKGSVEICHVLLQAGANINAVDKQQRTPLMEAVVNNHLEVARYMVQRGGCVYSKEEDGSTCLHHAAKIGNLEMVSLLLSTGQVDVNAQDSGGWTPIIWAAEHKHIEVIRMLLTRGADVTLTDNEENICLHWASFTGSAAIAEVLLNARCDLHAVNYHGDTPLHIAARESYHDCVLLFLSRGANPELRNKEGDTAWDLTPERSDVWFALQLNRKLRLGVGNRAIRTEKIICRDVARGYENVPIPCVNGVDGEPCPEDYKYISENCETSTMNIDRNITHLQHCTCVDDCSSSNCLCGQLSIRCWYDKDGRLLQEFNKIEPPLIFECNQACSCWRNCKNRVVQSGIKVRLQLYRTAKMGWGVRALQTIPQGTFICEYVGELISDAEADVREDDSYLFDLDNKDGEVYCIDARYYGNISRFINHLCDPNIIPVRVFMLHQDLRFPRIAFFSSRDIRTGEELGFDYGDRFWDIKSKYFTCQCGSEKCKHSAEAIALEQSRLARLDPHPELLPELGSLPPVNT
Compound,Potency,"activity, negative = inhibition"
COc1cccc(Cn2cnc3c(NS(=O)(=O)c4cccc(Cl)c4Cl)c(C)c(C)cc32)c1,"inconclusive: 3.55 µM [inhibitor, partial curve, poor fit]",
CCOc1ccc(S(=O)(=O)N2CCCCC2)cc1NC(=O)C1CSC2(C)CCC(=O)N12 (stereo not drawn),active: 39.8 µM,
CC1CCCCC1NC(=O)Cn1cnc2sccc2c1=O (stereo not drawn),"inconclusive: 89.1 µM [inhibitor, single point]",
COc1ccc(Br)cc1C(=O)CCC(=O)OCC(=O)Nc1cc(C(N)=O)cc(C(N)=O)c1,"inconclusive: 12.6 µM [inhibitor, partial curve, poor fit]",
Cc1cccc(Nc2ncc(NC(=O)c3cccc(F)c3)c(Nc3cccc(C)c3)n2)c1,,inactive: -47.8%
O=C(COC(=O)Cc1n[nH]c(=O)c2ccccc12)Nc1ccc(Cl)cn1,"inconclusive: 6.31 µM [inhibitor, single point]",
Cn1c(-[n+]2c(-c3ccccc3)cc(-c3ccccc3)cc2-c2ccccc2)nc2cc([N+](=O)[O-])ccc21,active: 1.78 µM,
CCOC(=O)c1c(C)n(C)c2ccc(OC)c(NC(=O)CN3CCC4(CC3)OCCO4)c12,"inconclusive: 89.1 µM [inhibitor, single point]",
CC1CCN(CC(=O)NCCc2ccc(F)cc2)CC1,active: 12.6 µM,
O=C(Nc1ccc(-c2ccccc2)cc1)c1ccco1,"inconclusive: 5.01 µM [inhibitor, full curve, poor fit]",
CCCCN1C2=C(C(=O)CC(C)(C)C2)C(c2ccccc2)C2=C1c1ccccc1C2=O (stereo not drawn),"inconclusive: 2 µM [inhibitor, partial curve, poor fit]",
CCOc1ccccc1NC(=O)c1ccc2nc[nH]c2c1,,inactive: 28.1%
COc1ccc(NC(C)C(=O)Nc2cc(C(F)(F)F)ccc2N2CCOCC2)c(OC)c1 (stereo not drawn),"inconclusive: 31.6 µM [inhibitor, single point]",
CCCC(CCC)=NNc1ccc(S(=O)(=O)Nc2ccccc2OC)cc1[N+](=O)[O-],"inconclusive: 3.16 µM [inhibitor, partial curve, poor fit]",
Cc1cccc(Nc2nc(N)nc(CN3CCN(c4ccc(F)cc4)CC3)n2)c1,active: 44.7 µM,
O=C(CNC(=O)c1ccco1)N/N=C/c1ccc(O)cc1O,"inconclusive: 0.891 µM [inhibitor, partial curve, poor fit]",
CCC(C)Oc1ccc(C(=O)Nc2ccc(CN3CCOCC3)cc2)cc1 (stereo not drawn),"inconclusive: 31.6 µM [inhibitor, single point]",
c1ccc(CN2CCC(Nc3nc(-c4ccccc4)nc4ccccc34)CC2)cc1,"inconclusive: 3.16 µM [inhibitor, single point]",
CCC1CCCCN1C1Sc2ccc(C(=O)OC)cc2NC1=O (stereo not drawn),"inconclusive: 50.1 µM [inhibitor, partial curve]",
Cc1cc(O)c(C(=O)/C=C/c2ccccc2O)c(=O)o1,active: 50.1 µM,
CCSc1nnc(-c2ccc(S(=O)(=O)N3CCCC3)cc2)n1C,"inconclusive: 50.1 µM [inhibitor, partial curve]",
CN(C)S(=O)(=O)c1ccc(C(=O)Nc2ccccn2)cc1,"inconclusive: 89.1 µM [inhibitor, single point]",
Cc1cc(OC(=O)c2cc(C(F)(F)F)cc(C(F)(F)F)c2)c([N+](=O)[O-])c(=O)[nH]1,"inconclusive: 89.1 µM [inhibitor, single point]",

Compound,Potency,"activity, negative = inhibition"
CC(=O)NCc1cc(Cl)c2cccnc2c1O,,inactive: 11.7% [at 12.7 µM]
CN1CCc2c1nc1ccccc1c2N=C1CCCN1Cc1ccccc1,,inactive: -2.77%
Cc1ccc(SC(c2ccc(C)cc2)C(Cn2cncn2)C(=O)c2ccccc2)cc1 (stereo not drawn),,inactive: 43.9%
COc1ccccc1NC(=O)c1ccc(NC(=O)c2ccc(=O)[nH]c2)cc1,"inconclusive: 39.8 µM [inhibitor, single point]",
Cc1ccc(C(=O)N(Cc2ccco2)Cc2ccco2)cc1,"inconclusive: 25.1 µM [inhibitor, partial curve, poor fit]",
CCOc1cc(CNC(=O)c2ccccc2NC(=O)c2nsc3ccccc23)ccc1OC,,inactive: -11.4%
CCOc1ccc(S(=O)(=O)/N=C(\N)c2ccccc2)cc1,active: 35.5 µM,
c1ccc(Cc2noc(CN3CCN(Cc4ccc5c(c4)OCO5)CC3)n2)cc1,"inconclusive: 70.8 µM [inhibitor, partial curve, poor fit]",
O=C(NCCCn1ccnc1)c1ccc(N2CCCCCC2)c([N+](=O)[O-])c1,"inconclusive: 44.7 µM [inhibitor, partial curve]",
Cc1nc2c([nH]c3ccccc32)c(=O)n1N,"inconclusive: 79.4 µM [inhibitor, partial curve, poor fit]",
O=C(NCC(c1ccco1)N1CCN(c2ccccc2)CC1)c1cccs1 (stereo not drawn),"inconclusive: 79.4 µM [inhibitor, single point]",
CCCC(C)NC(=O)CN(c1ccc2c(c1)OCCO2)S(=O)(=O)c1ccccc1 (stereo not drawn),"inconclusive: 50.1 µM [inhibitor, partial curve]",
Cc1occc1C(=O)N1CCN(C(c2ccccc2)c2ccccc2)CC1,active: 39.8 µM,
O=C(NCc1ccc(F)cc1)c1cnc2n(c1=O)CCS2,"inconclusive: 89.1 µM [inhibitor, single point]",
O=C(NCCCN1CCOCC1)c1ccc2c(c1)N(Cc1ccc(Cl)cc1)C(=O)c1ccccc1S2=O (stereo not drawn),,inactive: 3.02% [at 102 µM]
Cc1noc(C)c1C(=O)N1CCC2(CCN(Cc3ccc(C#N)cc3)CC2)CC1,,inactive: 30.9% [at 12.7 µM]
COC(=O)C(C)Sc1nc2c(c(=O)n(C)c(=O)n2C)n1CCC(C)C (stereo not drawn),active: 79.4 µM,
Cc1ccc(C2c3c(-c4cc(C)ccc4O)n[nH]c3C(=O)N2Cc2ccco2)cc1 (stereo not drawn),active: 28.2 µM,
CCCC(C)NCC(=O)Nc1ccccc1-c1ccccc1 (stereo not drawn),"inconclusive: 3.16 µM [inhibitor, single point]",
Cc1oc2cc3c(C(=O)N4CCCCC4)c(C)oc3cc2c1C(=O)N1CCCCC1,"inconclusive: 39.8 µM [inhibitor, single point]",
COc1ccc(C2(O)CN(c3ccc(C)cc3)C3=[N+]2CCCC3)cc1 (stereo not drawn),"inconclusive: 79.4 µM [inhibitor, single point]",
Cc1ccc(S(=O)(=O)NCCCCCC(=O)NCCc2ccccc2)cc1,,inactive: -32.5% [at 102 µM]
Cc1cc([N+](=O)[O-])cnc1N1CCOCC1,,inactive: 4.78% [at 102 µM]

Compound,Potency,"activity, negative = inhibition"
O=C(CNC(=O)c1sc2ccccc2c1Cl)NCc1ccccc1,,inactive: 16.4% [at 102 µM]
Cc1ccc(NC(=O)CSc2n[nH]c(C)c2[N+](=O)[O-])cc1C,"inconclusive: 89.1 µM [inhibitor, single point]",
Cc1cccc(Cn2c(=O)n(Cc3ccc(C(=O)NC4CCN(Cc5ccccc5)CC4)cc3)c(=O)c3ccccc32)c1,,inactive: -2.21%
Cc1nc2nc(C)c(CCC(=O)O)c(C)n2n1,"inconclusive: 89.1 µM [inhibitor, single point]",
O=C(NC(=S)N1CCN(C(c2ccccc2)c2ccccc2)CC1)c1ccc(S(=O)(=O)N2CCOCC2)cc1,,inactive: -3.56%
Cc1ccc(NC(=O)CSc2nnc3nc(C)cc(C)n23)cc1,,inactive: -1.06%
Cc1ccc(-n2ncc(C(=O)NCCCN3CCCCC3)c2C2CCN(C(=O)OC(C)(C)C)CC2)c(C)c1,,inactive: -19.9%
COCCN=C1NN=C(c2cc(C)n(CC3CCCO3)c2C)CS1 (stereo not drawn),"inconclusive: 50.1 µM [inhibitor, partial curve, poor fit]",
O=C(NCCCCNC(=O)c1ccc(Cl)s1)c1ccc(Cl)s1,"inconclusive: 11.2 µM [inhibitor, partial curve, poor fit]",
Cc1ccccc1-n1nnnc1SCc1ncc(-c2ccccc2)o1,"inconclusive: 28.2 µM [inhibitor, partial curve, poor fit]",
CC(C(=O)NCc1ccccc1Cl)n1ccc2cc(S(=O)(=O)N3CCCCC3)ccc21 (stereo not drawn),"inconclusive: 6.31 µM [inhibitor, single point]",
CCN(CC)C(=O)c1sc(NC(=O)c2nc3ncccn3n2)c(C(=O)OC)c1C,"inconclusive: 7.08 µM [inhibitor, partial curve, poor fit]",
CC1CCCN(C(=O)/C(=C/c2ccco2)NC(=O)c2ccccc2)C1 (stereo not drawn),active: 44.7 µM,
CCS(=O)(=O)N1N=C(c2cccs2)CC1c1cc2cc(C)ccc2nc1Cl (stereo not drawn),"inconclusive: 70.8 µM [inhibitor, single point]",
CCCCNC(=O)NC1(C(F)(F)F)Oc2ccccc2O1,"inconclusive: 2 µM [inhibitor, full curve, poor fit]",
NS(=O)(=O)c1ccc(NC(=O)c2ccc3c(c2)OCO3)cc1,"inconclusive: 4.47 µM [inhibitor, full curve, poor fit]",
CCOC(=O)C1=NN(c2ccccc2)C(=O)/C1=C\c1ccc(N(C)C)cc1,"inconclusive: 2.82 µM [inhibitor, full curve, poor fit]",
Cc1cccc(Cn2ccn(Cc3ccc(Cl)cc3)c(=O)c2=O)c1,,inactive: 5.06%
O=C(Nc1ccncc1)c1cc(S(=O)(=O)N2CCN(c3ccccc3)CC2)ccc1Cl,"inconclusive: 79.4 µM [inhibitor, single point]",
Cc1cc(-c2nnc(SCC(=O)N3C(C)CCCC3C)o2)no1 (stereo not drawn),"inconclusive: 89.1 µM [inhibitor, partial curve, poor fit]",
O=C(Nc1nc2ccc(Cl)cc2s1)[C@@H]1CCCN1C(=O)c1cccs1,"inconclusive: 20 µM [inhibitor, single point]",
Cc1ccc(CNc2oc(-c3ccco3)nc2C#N)cc1,"inconclusive: 39.8 µM [inhibitor, single point]",
